Measurements reported in patent US9556117B2, “Indole carboxamide derivatives as P2X7 receptor antagonists” (ACTELION PHARMACEUTICALS LTD, priority 2012, dated 2017).

Target: human recombinant P2X7 receptor (Homo sapiens (Human), UniProt Q99572)
Assay: YO-PRO1 assay, P2X7 receptor antagonistic activity
Settings: HEK-293 cells expressing human recombinant P2X7 receptor; YO-PRO-1 fluorescence; ATP 250 μM for 90 minutes

UniProt Q99572, sequence (Q99572 whole entry): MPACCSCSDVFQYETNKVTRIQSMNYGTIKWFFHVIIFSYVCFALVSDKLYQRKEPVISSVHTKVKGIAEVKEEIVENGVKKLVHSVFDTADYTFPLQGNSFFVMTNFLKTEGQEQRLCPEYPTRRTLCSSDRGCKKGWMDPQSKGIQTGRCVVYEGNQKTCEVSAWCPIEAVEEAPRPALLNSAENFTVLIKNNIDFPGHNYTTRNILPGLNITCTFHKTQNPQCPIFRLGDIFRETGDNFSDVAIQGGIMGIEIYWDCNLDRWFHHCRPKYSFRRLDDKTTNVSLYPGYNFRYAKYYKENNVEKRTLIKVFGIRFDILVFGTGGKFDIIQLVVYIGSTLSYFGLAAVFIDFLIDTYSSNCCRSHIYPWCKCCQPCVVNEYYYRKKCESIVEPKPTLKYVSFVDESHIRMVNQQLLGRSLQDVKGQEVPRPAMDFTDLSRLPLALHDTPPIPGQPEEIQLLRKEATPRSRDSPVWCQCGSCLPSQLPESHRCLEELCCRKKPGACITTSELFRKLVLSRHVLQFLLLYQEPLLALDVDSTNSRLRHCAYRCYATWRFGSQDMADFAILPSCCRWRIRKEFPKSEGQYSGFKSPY

SMILES	IC50 [nM]
O=C(N[C@H](CO)C1CCCCC1)c1ccc2[nH]ccc2c1Cl [Example 1, 4-Chloro-1H-indole-5-carboxylic acid ((S)-1-cyclohexyl-2-hydroxy-ethyl)-amide]	13
COC(=O)CS(=O)(=O)NC1(CNC(=O)c2ccc3[nH]ccc3c2Cl)CCCCC1 [Example 51, (1-{[(4-Chloro-1H-indole-5-carbonyl)-amino]-methyl}-cyclohexylsulfamoyl)-acetic acid methyl ester]	24
CCc1c(C(=O)NCC2(O)CCC(F)(F)CC2)ccc2[nH]ccc12 [Example 65, 4-Ethyl-1H-indole-5-carboxylic acid (4,4-difluoro-1-hydroxy-cyclohexylmethyl)-amide]	79
Cc1ncc(C2(CNC(=O)c3cc(C)c4[nH]ccc4c3Cl)CCCCC2)cn1 [Example 62, 4-Chloro-7-methyl-1H-indole-5-carboxylic acid [1-(2-methyl-pyrimidin-5-yl)-cyclohexylmethyl]-amide]	4.1
Cc1cc(C(=O)NCC2(O)CCCCC2)c(C(F)(F)F)c2cc[nH]c12 [Example 69, 7-Methyl-4-trifluoromethyl-1H-indole-5-carboxylic acid (1-hydroxy-cyclohexylmethyl)-amide]	10
CC(=O)NC1(CNC(=O)c2ccc3[nH]ccc3c2Cl)CCCCC1 [Example 46, 4-Chloro-1H-indole-5-carboxylic acid (1-acetylamino-cyclohexylmethyl)-amide]	209
Cc1cc(C(=O)NCC2(O)CCC(F)(F)CC2)c(C(F)(F)F)c2cc[nH]c12 [Example 70, 7-Methyl-4-trifluoromethyl-1H-indole-5-carboxylic acid (4,4-difluoro-1-hydroxy-cyclohexylmethyl)-amide]	10
Cc1ncc(C2(CNC(=O)c3ccc4[nH]ccc4c3Cl)CCCCC2)cn1 [Example 58, 4-Chloro-1H-indole-5-carboxylic acid [1-(2-methyl-pyrimidin-5-yl)-cyclohexylmethyl]-amide]	6.4
COc1cc(C(=O)NCC2(O)CCC(F)(F)CC2)c(F)c2cc[nH]c12 [Example 93, 4-Fluoro-7-methoxy-1H-indole-5-carboxylic acid (4,4-difluoro-1-hydroxy-cyclohexylmethyl)-amide]	70
O=C1Cc2c(ccc(C(=O)NCC3(O)CCCCCC3)c2Cl)N1 [Example 21, 4-Chloro-2-oxo-2,3-dihydro-1H-indole-5-carboxylic acid (1-hydroxy-cycloheptylmethyl)-amide]	302
Cc1cc2[nH]ccc2c(Cl)c1C(=O)NCC1(O)CCCCC1 [Example 40, 4-Chloro-6-methyl-1H-indole-5-carboxylic acid (1-hydroxy-cyclohexylmethyl)-amide]	1600
CCOc1cc(C(=O)NCC2(O)CCCCC2)c(Cl)c2cc[nH]c12 [Example 79, 4-Chloro-7-ethoxy-1H-indole-5-carboxylic acid (1-hydroxy-cyclohexylmethyl)-amide]	6.1
Cc1c[nH]c2ccc(C(=O)NCC3(O)CCCCCC3)c(Cl)c12 [Example 33, 4-Chloro-3-methyl-1H-indole-5-carboxylic acid (1-hydroxy-cycloheptylmethyl)-amide]	44
Cc1cc(C(=O)NCC2(O)CCCCC2)c(Cl)c2c(Br)c[nH]c12 [Example 50, 3-Bromo-4-chloro-7-methyl-1H-indole-5-carboxylic acid (1-hydroxy-cyclohexylmethyl)-amide]	246
CC(C)Cc1cc(C(=O)NCC2(O)CCCCCC2)c(Cl)c2cc[nH]c12 [Example 52, 4-Chloro-7-isobutyl-1H-indol-5-carboxylic acid (1-hydroxy-cycloheptylmethyl)-amide]	5.9
O=C(NCC1(O)CCCCCC1)c1ccc2[nH]ccc2c1Cl [Example 3, 4-Chloro-1H-indole-5-carboxylic acid (1-hydroxy-cycloheptylmethyl)-amide]	12
CC(=O)c1cc(C(=O)NCC2(O)CCCCC2)c(Cl)c2cc[nH]c12 [Example 88, 7-Acetyl-4-chloro-1H-indole-5-carboxylic acid (1-hydroxy-cyclohexylmethyl)-amide]	25
CC(C)(C)OCCOc1cc(C(=O)NCC2(O)CCCCC2)c(Cl)c2cc[nH]c12 [Example 84, 7-(2-tert-Butoxy-ethoxy)-4-chloro-1H-indole-5-carboxylic acid (1-hydroxy-cyclohexylmethyl)-amide]	25
Cc1c(C(=O)NCC2(O)CCCCC2)cc(Cl)c2[nH]ccc12 [Example 74, 7-Chloro-4-methyl-1H-indole-5-carboxylic acid (1-hydroxy-cyclohexylmethyl)-amide]	17
COc1cc(C(=O)NCC2(O)CCCCC2)c(C)c2cc[nH]c12 [Example 78, 7-Methoxy-4-methyl-1H-indole-5-carboxylic acid (1-hydroxy-cyclohexylmethyl)-amide]	21
O=C(NCC1(c2cccnc2)CCCC1)c1ccc2[nH]ccc2c1Cl [Example 18, 4-Chloro-1H-indole-5-carboxylic acid (1-pyridin-3-yl-cyclopentylmethyl)-amide]	178

SMILES	IC50 [nM]
CC(C)(C)OCCOc1cc(C(=O)NCC2(O)CCC(F)(F)CC2)c(Cl)c2cc[nH]c12 [Example 85, 7-(2-tert-Butoxy-ethoxy)-4-chloro-1H-indole-5-carboxylic acid (4,4-difluoro-1-hydroxy-cyclohexylmethyl)-amide]	30
COC(C)(C)c1cc(C(=O)NCC2(O)CCC(F)(F)CC2)c(Cl)c2cc[nH]c12 [Example 95, 4-Chloro-7-(1-methoxy-1-methyl-ethyl)-1H-indole-5-carboxylic acid (4,4-difluoro-1-hydroxy-cyclohexylmethyl)-amide]	9.3
O=Cc1c[nH]c2ccc(C(=O)N[C@H](CO)C3CCCCC3)c(Cl)c12 [Example 8, 4-Chloro-3-formyl-1H-indole-5-carboxylic acid ((S)-1-cyclohexyl-2-hydroxy-ethyl)-amide]	198
Cc1c(C(=O)NCC2(O)CCCCC2)ccc2[nH]ccc12 [Example 57, 4-Methyl-1H-indole-5-carboxylic acid (1-hydroxy-cyclohexylmethyl)-amide]	68
NC(=O)C1(CNC(=O)c2ccc3[nH]ccc3c2Cl)CCCCC1 [Example 34, 4-Chloro-1H-indole-5-carboxylic acid (1-carbamoyl-cyclohexylmethyl)-amide]	130
COc1cc(C(=O)NCC2(O)CCC(F)(F)CC2)c(Cl)c2cc[nH]c12 [Example 59, 4-Chloro-7-methoxy-1H-indole-5-carboxylic acid (4,4-difluoro-1-hydroxy-cyclohexylmethyl)-amide]	5.4
O=C(NCC1(c2cccnc2)CCCCC1)c1ccc2[nH]ccc2c1Cl [Example 17, 4-Chloro-1H-indole-5-carboxylic acid (1-pyridin-3-yl-cyclohexylmethyl)-amide]	14
CNC(=O)C1(CNC(=O)c2ccc3[nH]ccc3c2Cl)CCCCC1 [Example 35, 4-Chloro-1H-indole-5-carboxylic acid (1-methylcarbamoyl-cyclohexylmethyl)-amide]	666
Cc1cc(C(=O)NCC2(O)CCC(F)(F)CC2)c(Cl)c2cc[nH]c12 [Example 24, 4-Chloro-7-methyl-1H-indole-5-carboxylic acid (4,4-difluoro-1-hydroxy-cyclohexylmethyl)-amide]	4.7
O=C(NCC1(c2cccnc2)CCCCCC1)c1ccc2[nH]ccc2c1Cl [Example 19, 4-Chloro-1H-indole-5-carboxylic acid (1-pyridin-3-yl-cycloheptylmethyl)-amide]	18
O=C(NCC1(O)CCCCCCC1)c1ccc2[nH]ccc2c1Cl [Example 42, 4-Chloro-1H-indole-5-carboxylic acid (1-hydroxy-cyclooctylmethyl)-amide]	14
O=C(NCC1(O)CCCC1)c1ccc2[nH]ccc2c1Cl [Example 41, 4-Chloro-1H-indole-5-carboxylic acid (1-hydroxy-cyclopentylmethyl)-amide]	264
Cc1c(C(=O)NCC2(O)CCC(F)(F)CC2)cc(C)c2[nH]ccc12 [Example 63, 4,7-Dimethyl-1H-indole-5-carboxylic acid (4,4-difluoro-1-hydroxy-cyclohexylmethyl)-amide]	4
O=C(NCC1(c2ccc(C(F)(F)F)nc2)CCCCC1)c1ccc2[nH]ccc2c1Cl [Example 13, 4-Chloro-1H-indole-5-carboxylic acid [1-(6-trifluoromethyl-pyridin-3-yl)-cyclohexylmethyl]-amide]	17
CC(C)Cc1cc(C(=O)NCC2(O)CCC(F)(F)CC2)c(Cl)c2cc[nH]c12 [Example 54, 4-Chloro-7-isobutyl-1H-indole-5-carboxylic acid (4,4-difluoro-1-hydroxy-cyclohexylmethyl)-amide]	13
O=C(NCC1(CO)CCCCC1)c1ccc2[nH]ccc2c1Cl [Example 31, 4-Chloro-1H-indole-5-carboxylic acid (1-hydroxymethyl-cyclohexylmethyl)-amide]	38
C[C@H](NC(=O)c1ccc2[nH]ccc2c1Cl)C1CCCCC1 [Example 44, 4-Chloro-1H-indole-5-carboxylic acid ((S)-1-cyclohexyl-ethyl)-amide]	1430
O=C(NCC1(c2ccc(Cl)nc2)CCC(F)(F)CC1)c1ccc2[nH]ccc2c1Cl [Example 14, 4-Chloro-1H-indole-5-carboxylic acid [1-(6-chloro-pyridin-3-yl)-4,4-difluoro-cyclohexylmethyl]-amide]	4.5
O=C(NCC1(O)CCCCC1)c1cc([N+](=O)[O-])c2[nH]ccc2c1Cl [Example 29, 4-Chloro-7-nitro-1H-indole-5-carboxylic acid (1-hydroxy-cyclohexylmethyl)-amide]	20
CC(C)(C)OC(=O)NC1(CNC(=O)c2ccc3[nH]ccc3c2Cl)CCCCC1 [Example 37, (1-{[(4-Chloro-1H-indole-5-carbonyl)-amino]-methyl}-cyclohexyl)-carbamic acid tert-butyl ester]	420
